Results reported in paper PMC4918322.
No constants are given. Whether binding was seen depends on the method and setting. For part of these data: In cells and extracts the contact can be indirect. Some binding calls cover weakened binding; strength is not graded here. For part of these data: Tags and fused reporters may be left off the sequences shown. Values belong to the molecule of their own block, whether it stands above or below them.

Sequences of proteins named here, by UniProt entry; tags and fusion partners are left off.
UniProt O60264: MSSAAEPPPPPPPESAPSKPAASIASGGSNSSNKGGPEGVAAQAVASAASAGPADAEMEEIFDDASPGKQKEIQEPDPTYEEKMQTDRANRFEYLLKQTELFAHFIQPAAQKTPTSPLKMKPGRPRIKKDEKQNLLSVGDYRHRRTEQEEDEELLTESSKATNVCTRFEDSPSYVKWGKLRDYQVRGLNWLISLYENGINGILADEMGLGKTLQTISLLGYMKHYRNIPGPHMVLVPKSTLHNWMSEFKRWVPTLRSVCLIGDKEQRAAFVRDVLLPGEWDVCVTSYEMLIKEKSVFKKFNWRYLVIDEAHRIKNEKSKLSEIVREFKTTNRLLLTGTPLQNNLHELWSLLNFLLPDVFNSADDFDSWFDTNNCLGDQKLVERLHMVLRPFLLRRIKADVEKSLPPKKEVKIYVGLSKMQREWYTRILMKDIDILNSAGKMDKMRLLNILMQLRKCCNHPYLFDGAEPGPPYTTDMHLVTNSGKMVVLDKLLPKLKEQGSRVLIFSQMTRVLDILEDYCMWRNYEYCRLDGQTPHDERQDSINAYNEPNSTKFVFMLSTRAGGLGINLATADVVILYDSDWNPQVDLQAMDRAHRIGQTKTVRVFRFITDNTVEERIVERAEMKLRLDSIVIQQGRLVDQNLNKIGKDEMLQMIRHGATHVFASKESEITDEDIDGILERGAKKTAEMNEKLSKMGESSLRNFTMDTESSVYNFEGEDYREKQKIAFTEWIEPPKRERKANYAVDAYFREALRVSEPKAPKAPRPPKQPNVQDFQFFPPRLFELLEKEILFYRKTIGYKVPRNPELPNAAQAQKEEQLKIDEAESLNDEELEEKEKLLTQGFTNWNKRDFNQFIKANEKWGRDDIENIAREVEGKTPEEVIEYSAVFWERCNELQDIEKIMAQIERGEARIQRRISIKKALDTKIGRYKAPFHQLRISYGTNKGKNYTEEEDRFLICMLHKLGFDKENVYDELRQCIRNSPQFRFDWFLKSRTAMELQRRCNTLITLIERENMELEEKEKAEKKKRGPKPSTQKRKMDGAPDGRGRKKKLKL

What was measured:
[1] = target: T1, recombinant GST-RSF1 of Fig. 1g (human) (UniProt Q96T23); experiment: pull-down; recombinant GST-RSF1 proteins immobilised, incubated with Myc-PLK1 or Flag-PLK1 expressing mitotic lysates; immunoblotting; only the target purified
T1 sequence: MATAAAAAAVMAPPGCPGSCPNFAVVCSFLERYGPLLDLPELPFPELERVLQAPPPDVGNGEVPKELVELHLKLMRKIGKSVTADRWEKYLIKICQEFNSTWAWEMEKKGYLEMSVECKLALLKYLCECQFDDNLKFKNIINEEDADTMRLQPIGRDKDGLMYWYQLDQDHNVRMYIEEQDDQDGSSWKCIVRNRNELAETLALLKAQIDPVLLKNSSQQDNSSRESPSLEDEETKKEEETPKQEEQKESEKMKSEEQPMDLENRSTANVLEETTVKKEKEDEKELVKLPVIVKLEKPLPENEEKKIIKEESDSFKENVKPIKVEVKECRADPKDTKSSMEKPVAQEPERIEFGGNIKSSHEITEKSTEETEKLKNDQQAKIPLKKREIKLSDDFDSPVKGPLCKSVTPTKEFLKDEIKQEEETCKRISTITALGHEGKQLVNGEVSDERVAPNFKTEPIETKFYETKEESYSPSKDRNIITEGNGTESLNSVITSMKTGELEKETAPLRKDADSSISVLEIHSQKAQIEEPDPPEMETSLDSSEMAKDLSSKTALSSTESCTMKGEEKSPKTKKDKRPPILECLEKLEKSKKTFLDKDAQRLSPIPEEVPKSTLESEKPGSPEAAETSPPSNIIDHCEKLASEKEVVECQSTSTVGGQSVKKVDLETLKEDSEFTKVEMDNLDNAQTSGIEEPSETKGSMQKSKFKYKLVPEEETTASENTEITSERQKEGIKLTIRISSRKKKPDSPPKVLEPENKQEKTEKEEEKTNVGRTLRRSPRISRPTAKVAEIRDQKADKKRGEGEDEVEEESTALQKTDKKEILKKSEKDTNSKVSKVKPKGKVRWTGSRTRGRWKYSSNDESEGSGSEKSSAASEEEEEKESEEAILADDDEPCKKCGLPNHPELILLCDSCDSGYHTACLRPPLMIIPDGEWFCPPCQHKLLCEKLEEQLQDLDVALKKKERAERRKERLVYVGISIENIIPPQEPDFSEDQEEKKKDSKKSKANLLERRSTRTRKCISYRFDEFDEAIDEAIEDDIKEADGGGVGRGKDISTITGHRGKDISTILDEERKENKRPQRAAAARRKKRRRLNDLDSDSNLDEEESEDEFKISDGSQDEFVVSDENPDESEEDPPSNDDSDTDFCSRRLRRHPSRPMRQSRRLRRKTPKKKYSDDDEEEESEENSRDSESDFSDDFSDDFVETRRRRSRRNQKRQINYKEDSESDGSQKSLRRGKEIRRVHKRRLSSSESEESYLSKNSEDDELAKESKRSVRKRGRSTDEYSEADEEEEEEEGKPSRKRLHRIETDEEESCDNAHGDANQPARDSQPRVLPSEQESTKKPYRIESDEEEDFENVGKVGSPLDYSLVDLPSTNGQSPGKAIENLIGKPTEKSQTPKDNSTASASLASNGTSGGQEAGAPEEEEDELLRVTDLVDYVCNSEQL

[2] = target: T2, recombinant GST-RSF1-C2 (amino acids 982-1441) (human) (UniProt Q96T23); experiment: as above
T2 sequence: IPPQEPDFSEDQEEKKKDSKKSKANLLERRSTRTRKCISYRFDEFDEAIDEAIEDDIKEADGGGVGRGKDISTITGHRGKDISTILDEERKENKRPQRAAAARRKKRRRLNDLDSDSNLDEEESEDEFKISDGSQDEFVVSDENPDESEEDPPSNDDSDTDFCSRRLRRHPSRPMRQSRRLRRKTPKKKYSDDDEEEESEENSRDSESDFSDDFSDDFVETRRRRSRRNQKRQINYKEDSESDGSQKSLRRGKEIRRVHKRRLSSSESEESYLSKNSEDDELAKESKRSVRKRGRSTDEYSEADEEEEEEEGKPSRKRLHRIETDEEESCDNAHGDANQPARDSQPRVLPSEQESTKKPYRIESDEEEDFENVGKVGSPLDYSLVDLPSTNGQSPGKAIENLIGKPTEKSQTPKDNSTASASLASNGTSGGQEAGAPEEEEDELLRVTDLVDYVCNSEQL

[3] = target: T3, recombinant GST-RSF1-N2 (amino acids 1-871) (human) (UniProt Q96T23); experiment: as above
T3 sequence: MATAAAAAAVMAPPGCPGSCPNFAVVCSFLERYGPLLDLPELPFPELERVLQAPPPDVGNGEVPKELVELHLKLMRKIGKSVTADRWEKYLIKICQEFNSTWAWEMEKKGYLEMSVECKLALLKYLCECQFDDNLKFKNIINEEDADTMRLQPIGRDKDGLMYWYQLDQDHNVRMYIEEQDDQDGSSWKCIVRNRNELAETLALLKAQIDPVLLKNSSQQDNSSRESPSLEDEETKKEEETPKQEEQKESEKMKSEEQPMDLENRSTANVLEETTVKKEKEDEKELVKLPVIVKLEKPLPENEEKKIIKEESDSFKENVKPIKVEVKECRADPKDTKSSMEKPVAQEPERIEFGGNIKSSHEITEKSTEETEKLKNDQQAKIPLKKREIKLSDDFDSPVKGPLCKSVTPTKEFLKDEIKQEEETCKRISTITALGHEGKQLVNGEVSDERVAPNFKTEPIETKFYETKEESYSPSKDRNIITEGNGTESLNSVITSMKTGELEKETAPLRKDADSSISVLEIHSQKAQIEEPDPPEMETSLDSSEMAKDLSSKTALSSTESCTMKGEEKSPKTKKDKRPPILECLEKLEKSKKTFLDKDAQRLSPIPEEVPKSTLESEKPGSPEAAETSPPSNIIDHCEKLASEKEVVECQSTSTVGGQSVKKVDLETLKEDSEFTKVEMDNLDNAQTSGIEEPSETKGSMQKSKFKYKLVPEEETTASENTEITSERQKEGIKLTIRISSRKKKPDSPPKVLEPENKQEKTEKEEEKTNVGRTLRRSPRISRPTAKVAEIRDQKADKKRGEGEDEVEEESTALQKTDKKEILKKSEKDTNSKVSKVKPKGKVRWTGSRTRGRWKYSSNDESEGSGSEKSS

[4] = target: endogenous PLK1 (human (endogenous in HeLa)) (UniProt P53350); experiment: co-IP; RSF1 KO HeLa cell extracts
[5] = target: PLK1 of the pull-down in Supplementary Fig. 2d (UniProt P53350); experiment: pull-down; pull-down of Supplementary Fig. 2d; format not given
[6] = target: T4, HA-tagged Aurora B, Q96GD4; experiment: pull-down; in vitro binding assay: Myc-, HA- or Flag-tagged protein immunopurified from mitosis-enriched HEK293T cells and immobilised on beads, incubated with recombinant RSF1-V5 for 2 h at 4 °C; bound RSF1-V5 detected by immunoblotting; both purified; conditions: remark: other sources report otherwise
T4 chain: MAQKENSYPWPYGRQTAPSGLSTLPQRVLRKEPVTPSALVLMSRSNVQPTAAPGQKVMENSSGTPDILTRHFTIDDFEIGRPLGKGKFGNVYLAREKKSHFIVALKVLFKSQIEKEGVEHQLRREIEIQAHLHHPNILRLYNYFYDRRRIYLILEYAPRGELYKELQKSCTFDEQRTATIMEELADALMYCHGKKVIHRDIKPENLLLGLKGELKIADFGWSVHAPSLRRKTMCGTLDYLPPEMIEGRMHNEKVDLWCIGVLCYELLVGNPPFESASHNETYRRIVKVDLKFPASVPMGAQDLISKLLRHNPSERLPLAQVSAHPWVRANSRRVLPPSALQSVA

Molecule: Flag-tagged PLK1 wild type (from UniProt P53350 1-603)
- binding [1]: binds

Molecule: SNF2H in RSF1 KO HeLa cell extracts (from UniProt O60264 1-1052)
- binding [4]: no binding

Molecule: SNF2H of the pull-down in Supplementary Fig. 2d (from UniProt O60264 1-1052)
- binding [5]: no binding

More lines, now with the values ahead:

- binding [2]: binds
- binding [3]: no binding
Molecule: Myc-tagged PLK1 (from UniProt P53350 1-603)

- binding [6]: no binding
B1: recombinant V5-tagged full-length RSF1, Q96T23 1-1441 (protein)
chain: T1 sequence
